Reference: PubChem BioAssay AID686979 (National Center for Advancing Translational Sciences (NCATS), 2013)
Values joined by “and” are separate entries in the source; they are usually repeats but may differ in a detail not shown here. Equal entries are not always repeated. In all, about 420,000 compounds went through this assay and about 50,000 (12%) were called active. Inconclusive means that the source gave no clear call. Such entries were picked first, then a sample of the others. Calls follow the shape of the dose curve; as a rule, active = well fitted inhibition curve with a large enough effect; inconclusive = small, poorly fitted or top-dose-only effect; inactive = flat fitted curve, though single readings scatter. Potencies of inconclusive entries are left out as doubtful fits.
% is scaled to controls: 0 for no effect and ±100 for the full control effect; potency is read from the fitted curve at half-maximal effect; tags tell the direction and shape of the fitted curve.

Assay: qHTS for Inhibitors of human tyrosyl-DNA phosphodiesterase 1 (TDP1): qHTS in cells in presence of CPT; also: nearly all actives have a fitted effect of over 55% in size
Conditions: chicken DT40 Tdp1-/-;hTDP1 cells + 20 nM CPT, ATP luminescence, 48 h; activity change, negative = growth inhibition: at 46.2 µM (top of the series) unless noted
Summary of the method: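 Chicken DT40 Tdp1-/- cells stably complemented with human TDP1 were seeded at 400 cells/well in medium containing 20 nM camptothecin, exposed to pin-transferred compounds, and grown at 37 °C for at least 48 hr. Viability was read as ATP luminescence.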
With `CCCCOc1ccc(C(=O)NCCc2sc(-c3cccc(F)c3)nc2C)cc1` the Potency was inconclusive [inhibitor, single point]. For `CC(C)CC1C(=O)N(Cc2cn(CCC3OCCO3)nn2)CCS(=O)(=O)N1Cc1ccc(-c2ccc(Cl)c(Cl)c2)cc1` (stereo unspecified), the Potency was active: 8.2 µM. For `COC(=O)c1ccc(NC(=O)CC2C(=O)N(c3ccc(F)cc3)C(=O)N2Cc2ccc(OC)cc2)cc1` (stereo unspecified), the Potency was inconclusive [inhibitor, single point]. With `CC(=O)Nc1ccc(CN(C)c2c(C)nc3ccc(C(=O)N4CCN(c5ccccc5)CC4)cn23)cc1` the Potency was active: 23.1 µM. With `CCN(C(=O)COC(=O)c1ccc2ccccc2c1)c1c(N)n(Cc2ccccc2)c(=O)[nH]c1=O` the Potency was inconclusive [inhibitor, single point]. With `C(=N\Nc1nc2ccccc2[nH]1)/c1cccc2nccnc12` the Potency was active: 2.91 µM. In the case of `COc1ccc2oc(N)nc2c1`, the “activity change, negative = growth inhibition” value is reported as inactive: 0.744%. With `Cc1cc2nc(-c3ccc(OCc4ccc(F)cc4)cc3)cc(C(F)(F)F)n2n1` the “activity change, negative = growth inhibition” value was inactive: -16.6%. With `COc1ccc(Cl)c2sc(NC(=O)C3=COCCO3)nc12` the activity change, negative = growth inhibition was inconclusive: -15.5% [inhibitor]. In the case of `CCn1c(=O)c(CCC(=O)N2CCN(c3ccccn3)CC2)c(C)c2c(C)nn(-c3ccccc3)c21`, the Potency is reported as active: 16.4 µM. In the case of `CCC(CO)Oc1cc(NCc2ccccc2)c2ncn(C3CCCC3)c2c1` (stereo unspecified), the Potency is reported as inconclusive [inhibitor, single point]. For `CCOc1ccc(NC(=O)CN(C)C(=O)c2c(-c3c(F)cccc3Cl)noc2C)cc1OCC`, the Potency was inconclusive [inhibitor, single point]. In the case of `COc1ccc(N(CC(=O)Nc2ccc(Cl)cc2)S(=O)(=O)c2c(C)n[nH]c2C)cc1`, the Potency is reported as inconclusive [inhibitor, single point]. With `COc1ccc(-c2cn3nc(N4CCC(C(=O)Nc5cccc(OC)c5)CC4)sc3n2)cc1` the Potency was inconclusive [inhibitor, partial curve]. For `CCCNC(=O)N(CCOC)CC1CCCN(C2Cc3ccccc3C2)C1` (stereo unspecified), the “activity change, negative = growth inhibition” value was inactive: 25%. For `Cc1cc(/C([O-])=C(/C(=S)Nc2ccccc2)[n+]2ccccc2)c(C)n1-c1ccccc1`, the Potency was inconclusive [inhibitor, single point]. With `CS(=O)(=O)N(Cc1ccc(C(=O)Nc2ccccc2Sc2ccccc2)cc1)c1ccccc1` the Potency was inconclusive [inhibitor, partial curve]. With `c1ccc(-c2nnc(SCc3nc4ccccc4[nH]3)n2Cc2ccco2)cc1` the “activity change, negative = growth inhibition” value was inactive: -17.7%. For `COc1ccc(N2CCN(S(=O)(=O)c3ccc(OC)c(-c4noc(C)n4)c3)CC2)cc1`, the “activity change, negative = growth inhibition” value was inactive: -14.1%. With `CC(C)(C)NC(=O)C1(C)CCC(=O)N1C1CCN(Cc2ccccc2)CC1` (stereo unspecified) the “activity change, negative = growth inhibition” value was inactive: 3.66%. For `CCOc1ccc(-c2nc(CSCC(=O)NC3CC3)c(C)o2)cc1`, the Potency was inconclusive [inhibitor, single point]. In the case of `N#CC1=C(N)Oc2nc(-c3ccccc3)[nH]c2C1c1cccnc1` (stereo unspecified), the “activity change, negative = growth inhibition” value is reported as inactive: -16.3%. For `CCc1ccc(C2CC(c3ccccc3C)n3nc(N)nc3N2)cc1` (stereo unspecified), the Potency was inconclusive [inhibitor, single point]. In the case of `COc1cc(NC(=O)c2cccs2)c(OC)cc1NC(=O)CCC(=O)Nc1ccc2ncccc2c1`, the Potency is reported as inconclusive [inhibitor, single point]. With `CCc1ccc(NC(=O)c2ccc(F)c(S(=O)(=O)N(C)C3CCCCC3)c2)cc1` the Potency was inconclusive [inhibitor, single point]. With `CCc1ccc(NC(=O)CSc2nccn2-c2cccc(C)c2C)cc1` the Potency was active: 23.1 µM. In the case of `CN(CCc1ccccc1)C(=O)c1ccc(NC(=O)Cc2ccc(NC(=O)C3CCN(C(=O)C4CCCCC4)CC3)cc2)cc1`, the Potency is reported as inconclusive [inhibitor, single point]. For `Cc1nonc1C1CCCN1Cc1cn[nH]c1-c1ccc(-c2ccccc2)cc1` (stereo unspecified), the Potency was inconclusive [inhibitor, single point]. In the case of `CCOc1ccccc1C1CC(c2ccc(F)cc2)Nc2nc(N)nn21` (stereo unspecified), the Potency is reported as active: 1.16 µM. For `CCCN(CCC)Cc1cc(=O)oc2cc(OC)c(Cl)cc12`, the Potency was inconclusive [inhibitor, single point]. In the case of `O=C(C[n+]1csc2ccccc21)c1cccc([N+](=O)[O-])c1`, the Potency is reported as active: 11.2 µM. For `CC(/C=N/NC(=O)c1cc(-c2ccc3ccccc3c2)n[nH]1)=C\c1ccco1`, the Potency was inconclusive [inhibitor, single point]. For `CSCCC(NS(=O)(=O)c1ccc(C)cc1)C(=O)N1CCN(C(c2ccccc2)c2ccccc2)CC1` (stereo unspecified), the Potency was inconclusive [inhibitor, single point]. For `O=C(C1CCCN(S(=O)(=O)c2ccc(Br)s2)C1)N1CCN(c2ccc(F)cc2)CC1` (stereo unspecified), the Potency was active: 18.4 µM. With `CC(C)C[C@H](N)c1cn([C@@H](CCCCN)C(=O)N2CCNCC2)nn1` the Potency was active: 8.2 µM. In the case of `C[C@H](NC(=O)c1ccccc1Cl)C(=O)NCc1cccs1`, the “activity change, negative = growth inhibition” value is reported as inactive: -4.41%. For `O=C(c1cccc(F)c1)N1CCC2(CCCN(c3ccncc3)C2)CC1`, the “activity change, negative = growth inhibition” value was inactive: -5.45%. For `COc1ccc(NC(=O)CSc2nc3ccncc3[nH]2)c(OC)c1`, the Potency was active: 18.4 µM and active: 23.1 µM. With `Cc1ccc(OCC(=O)Nc2cc(NC(=O)COc3ccc(C)cc3)cc(C(=O)O)c2)cc1` the “activity change, negative = growth inhibition” value was inactive: -1.51%. With `CN(C)c1cccc(NC(=O)c2ccc(-c3ccc(F)c(F)c3)c3ccoc23)c1` the Potency was inconclusive [inhibitor, single point]. With `Oc1ccc(-c2nccc(-c3ccccn3)n2)cc1` the “activity change, negative = growth inhibition” value was inactive: 0.108%. In the case of `O=C(N1CCC(n2nc(-c3ccccc3)oc2=O)CC1)C1(c2ccccc2)CC1`, the Potency is reported as inconclusive [inhibitor, single point]. For `COc1cc(OC)c(OC)cc1CN1CCCC(c2nc(C)ncc2-c2ccc(F)cc2)C1` (stereo unspecified), the Potency was inconclusive [inhibitor, single point]. With `COc1ccc(NC(=S)NC2CCCCC2)cn1` the “activity change, negative = growth inhibition” value was inactive: 6.59%. In the case of `Cc1ccc(C2CC(=O)N(Cc3ccccc3)c3c2c(C)nn3-c2nc(C)cc(C)n2)cc1` (stereo unspecified), the Potency is reported as inconclusive [inhibitor, single point]. With `Cc1ccc(Cl)cc1NC(=O)c1ccccc1OCC(=O)N1CCOCC1` the Potency was inconclusive [inhibitor, single point]. With `O=C(C1CCN(S(=O)(=O)Cc2ccccc2)CC1)N1CCN(c2ccc(F)cc2)CC1` the Potency was active: 23.1 µM. For `CC[C@H](C)Cc1cn([C@@H](CCCN=C(N)N)C(=O)NCCCCCCCCCCC(=O)N2CCNCC2)nn1`, the Potency was inconclusive [inhibitor, single point]. For `O=C(c1ccccc1-c1nc(-c2ccccc2Cl)no1)N1CCOCC1`, the “activity change, negative = growth inhibition” value was inactive: 2.6%. With `O=C(NCC(c1ccco1)N1CCc2ccccc2C1)c1ccc([N+](=O)[O-])cc1` (stereo unspecified) the Potency was inconclusive [inhibitor, partial curve, poor fit]. For `CCOc1ccccc1NC(=O)C1CCCN(c2c(CC)c(C)nc3ncnn23)C1` (stereo unspecified), the Potency was active: 20.6 µM. For `Cc1ccc2c(=O)cc(C(=O)Nc3sc4c(c3C(N)=O)CCCC4)oc2c1`, the “activity change, negative = growth inhibition” value was inactive: -21.1%. For `COc1ccc(NC(=O)Cc2c(Sc3ccccc3)c3ccccc3n2C)cc1`, the Potency was inconclusive [inhibitor, partial curve, poor fit]. With `O=c1cc(-c2ccccc2)n(S(=O)(=O)c2ccccc2)o1` the “activity change, negative = growth inhibition” value was inactive: -0.89%. In the case of `CC(=O)N1CCN(C(=O)c2cc(-c3ccc(C)o3)nc3ccccc23)CC1`, the Potency is reported as inconclusive [inhibitor, partial curve]. In the case of `O=C(c1c(F)c(F)c(F)c(F)c1F)N1CCN(c2cccc(C(F)(F)F)c2)CC1`, the Potency is reported as inconclusive [inhibitor, single point]. For `Cn1c(N)c(C(=O)CSc2nn(-c3ccc(F)cc3)c(=S)s2)c(=O)n(C)c1=O`, the Potency was active: 20.6 µM. In the case of `CCN(C(=O)COC(=O)/C=C/c1cnc2ccccc2n1)c1ccccc1`, the “activity change, negative = growth inhibition” value is reported as inactive: -24.9%. In the case of `Cc1ccc(C)n1-c1c(C(=O)NCCCN2CCN(c3ccc(F)cc3)CC2)sc2ncccc12`, the Potency is reported as active: 20.6 µM. In the case of `CCCCN(Cc1ccco1)S(=O)(=O)c1csc(C(N)=O)c1`, the Potency is reported as inconclusive [inhibitor, single point]. For `CCOC(=O)c1c(C)[nH]c(C(=O)OC)c1CCC(=O)OC`, the Potency was inconclusive [inhibitor, single point]. For `N=c1c(C(=O)NCc2ccco2)cc2c(=O)n3ccccc3nc2n1CCc1ccccc1`, the Potency was active: 18.4 µM. For `CCn1ccnc1C(O)c1cccc(OC)c1OC` (stereo unspecified), the “activity change, negative = growth inhibition” value was inactive: 9.81%. For `CCOc1ccc(Cc2nnc(SCC(=O)c3ccc(OC)cc3)o2)cc1`, the Potency was inconclusive [inhibitor, single point]. For `Cc1nc2ccccn2c(=O)c1NC(=O)c1ccco1`, the “activity change, negative = growth inhibition” value was inactive: -4.84%. With `O=C(CSc1nnc(-c2cccs2)n1-c1ccccc1)c1ccc2c(c1)OCCO2` the “activity change, negative = growth inhibition” value was inactive: -19.3%. With `O=C(Nc1ccccc1)C1C2CCC3C(CCC21)C3(Cl)Cl` (stereo unspecified) the “activity change, negative = growth inhibition” value was inactive: -24.2%. With `Cc1cc(C)nc(SCC(=O)NC(=O)c2ccccc2O)n1` the “activity change, negative = growth inhibition” value was inactive: -0.802%. With `CCc1nn(C(C)C(=O)N2CCN(Cc3ccccc3)CC2)c(=O)c2cc3occc3n12` (stereo unspecified) the Potency was inconclusive [inhibitor, single point]. For `CCOc1ccc(-c2cc(C(=O)N3CCN(C)CC3)c3ccccc3n2)cc1`, the Potency was inconclusive [inhibitor, partial curve]. With `COC(=O)CC1COc2ccccc2N1C(=O)c1ccc(C(C)(C)C)cc1` (stereo unspecified) the Potency was inconclusive [inhibitor, single point].
